Drawing on ChEMBL document CHEMBL4513135, “CO-ADD screening of IQOG CSIS (Spain) compounds”, this text covers Inhibition for 66 molecules.

The other results are listed elsewhere or left out. Results with a measured potency or affinity are listed apart.

The test concerns Pseudomonas aeruginosa. As to conditions: Concentration 32 ug.mL-1; ASSAY_TEST Inhibition of Bacterial Growth; detection method Absorption (OD600); MEDIA CAMHB; plate type 384well; NBS; CORNING #3640; time 18 hr.
Turning to `CCOC(=O)c1cc2cc(OC(=O)Oc3ccc([N+](=O)[O-])cc3)ccc2[nH]1`, the Inhibition – broadly, the change of the read-out against control, counted positive when it falls – was 10.28%.

With `CN(Cc1cn(Cc2ccccc2)nn1)Cc1cc2cc(OCCCC3CCN(Cc4ccccc4)CC3)ccc2n1C`, the Inhibition is on record as 18.76%. As for `Cl.NC1(C(=O)O)CC1c1ccccc1` (stereo unspecified), the Inhibition turned out to be 34.23%. Consider `O=C(NCc1ccccc1)c1cc2ccccc2[nH]1`, for which the Inhibition turned out to be 7.26%.

`C#CCNc1nc(NCCCC2CCN(Cc3ccccc3)CC2)c(C#N)cc1C#N.Cl`: the Inhibition is reported as -31.38%. Take `N#CC1(Br)C(=NBr)Oc2c(ccc3ccccc23)C1c1cccc([N+](=O)[O-])c1` (stereo unspecified): the Inhibition is on record as 1.12%. The value for `CNC(=O)c1cc2cc(OC)ccc2[nH]1` was 37.97%; that for `CCOc1nc2nc(C)c(C=C3CCN(Cc4ccccc4)CC3)cc2c(-c2ccccc2)c1C#N` was 15.48%.

Regarding `COc1ccc(-c2cc(-c3ccccc3)c(C#N)c(N)n2)cc1`, the Inhibition was -16.55%. The value for `O=C(N/N=C/Cc1ccccc1)c1cc2ccccc2n1Cc1ccccc1` was 11.47%; that for `COc1ccc(C2c3c(ccc4ccccc34)OC(=NBr)C2(Br)C#N)cc1OC` (stereo unspecified) was -3.46%. For `O[C@H]1CC[C@H](NCc2ccccc2)CC1`, the Inhibition is 27.35%. The value for `Cl.Nc1c2c(nc3c1C(c1ccccc1)c1c(ccc4ccccc14)O3)CCCC2` (stereo unspecified) was 33.82%; that for `N#C/C(=C\c1ccccc1)C(=O)c1ccccc1` was 24.67%. The value for `NC(=O)c1cc2cc(OCc3ccccc3)ccc2[nH]1` was 14.94%; that for `Nc1c2c(nc3c1c1ccccc1n3Cc1ccccc1)CCCC2` was 35.2%; that for `COc1ccc2cc(C3C4=C(CC(C)(C)CC4=O)Oc4nc5c(c(N)c43)CCCC5)c(Cl)nc2c1` (stereo unspecified) was 7.66%. Take `O=C1OC(c2ccccc2)=NC12CC2c1ccc([N+](=O)[O-])cc1` (stereo unspecified): the Inhibition amounted to 38.36%.

For the molecule `N#Cc1cc(C#N)c(NCCCCC2CCN(Cc3ccccc3)CC2)nc1N`, the Inhibition came to 9.25%. For `CC(C)(C)OC(=O)Nc1ccc(Br)cn1`, the Inhibition came to 8%. The value for `CC(=O)N1CC(=O)NC1=S` was 42.84%; that for `C#CCN1CCc2nc3nc(N(C)C)c(C#N)cc3c(N)c2C1` was 32.41%.

For `C#CCN(C)c1nc(NCCCCC2CCN(Cc3ccccc3)CC2)c(C#N)cc1C#N`, the Inhibition is 0.72%.

For the molecule `O=C(COc1ccc2ccccc2c1)NNCc1c[nH]c2ccccc12`, the Inhibition is recorded as 21.76%. Regarding `Nc1c2c(nc3c1C(c1ccccc1)c1ccc4ccccc4c1O3)CCCC2` (stereo unspecified), the Inhibition worked out at 32.82%. The value for `CC1Cc2ccccc2N1/N=C/c1ccccc1` (stereo unspecified) was 16.29%; that for `Cn1cc(C(=O)NN)c2ccccc21` was 1.41%.

Take `Nc1c2c(nc3c1CC(c1c(Cl)cccc1Cl)C(=O)N3)CCCC2` (stereo unspecified): the Inhibition is recorded as 11.78%. As for `COc1nc2nc3c(c(N)c2cc1C#N)CCCC3`, the Inhibition turned out to be 18.62%. As to `Cn1ccnc1C1C2=C(CC(C)(C)CC2=O)Oc2nc3c(c(N)c21)CCCC3` (stereo unspecified), the Inhibition was -3.62%. For `Cc1cnc2ccc(Br)cn12`, the Inhibition is 29.12%.

Take `CCOC(=O)C1=C(C)Nc2nc3c(c(N)c2C1c1ccc([N+](=O)[O-])cc1)CCCC3.Cl` (stereo unspecified): the Inhibition came out at 39.54%.

With `N#Cc1cc(C#N)c(NCCCC2CCN(Cc3ccccc3)CC2)nc1N`, the Inhibition amounted to 8.97%. The value for `Cc1ccc(/C=C(\C#N)C(=O)c2ccccc2)cc1` was 27.43%; that for `CC(=O)/C=C/C1CCN(Cc2ccccc2)CC1` was 12.99%. In the case of `CC(=O)Nc1nc(Cl)c(C#N)c(-c2ccccc2)c1C#N`, the Inhibition was 14.84%. The value for `N#Cc1c(N)nc(N2CCCCC2)c(C#N)c1-c1ccccc1` was 17.98%.

On to `CCOC(=O)C1=C(C)OC(N)=C(C#N)C1c1ccc(OC)c(OC)c1` (stereo unspecified), for which the Inhibition turned out to be 27.7%. The value for `COc1ccccc1C1C(C#N)=C(N)Oc2c1ccc1ccccc21` (stereo unspecified) was 24.82%. On to `C1CNCCNCCNCCNC1`, for which the Inhibition came out at 25.02%.

In the case of `C#CCN1CCc2nc3nc(NC4CCN(Cc5ccccc5)CC4)c(C#N)cc3c(N)c2C1`, the Inhibition is reported as 9.07%.

In the case of `N#Cc1c(N)nc(N2CCOCC2)c(C#N)c1-c1ccccc1`, the Inhibition was found to be 13.59%.

Turning to `CCOC(=O)/C(=C\c1ccccc1)C(=O)c1ccccc1`, the Inhibition is recorded as 13.68%.

Take `N#CC1(Br)C(=NBr)Oc2c(ccc3ccccc23)C1c1ccc([N+](=O)[O-])cc1` (stereo unspecified): the Inhibition is given as -18.02%. As to `Cc1nc2c(cc1C#N)c(N)nn2C`, the Inhibition is on record as 16.64%.

For the molecule `COc1ccccc1-c1c(C#N)c(=O)oc2c1ccc1ccccc12`, the Inhibition is recorded as 13.43%. The value for `Cc1ccc(C(O)SNNc2nc(C)nc3c2c(C)nn3-c2ccccc2)cc1` (stereo unspecified) was 24.28%; that for `COc1ccc(C2C(C#N)=C(N)Oc3c2ccc2ccccc32)cc1` (stereo unspecified) was 18.57%; that for `CC1=N/C(=C(\C)c2ccccc2)C(=O)O1` was 14.61%. The value for `C#CCn1c(N)c(C#N)c2cc(O)ccc21` was 16.97%. `C#CCN(C)c1cc(Cl)nc(N)n1`: the Inhibition amounted to 14.05%. The value for `Cc1ccc2nc(Cl)c(/C=N/NCc3ccccc3)cc2c1` was 0.5%; that for `CNCc1cc2cc(OCc3ccccc3)ccc2n1C.Cl` was 29.95%; that for `Cc1ccc(C(O)SNNc2ncnc3c2c(C)nn3-c2ccccc2)cc1` (stereo unspecified) was 6.13%. Regarding `CCOC(=O)c1c(C)nc2nc3c(c(N)c2c1-c1ccccc1OC)CCCCC3`, the Inhibition came to 7.43%. For the molecule `C/C=C(/C#N)C(=O)OC`, the Inhibition is reported as 15.98%. The value for `COc1cccc(C2C(C#N)=C(N)Oc3[nH]nc(C)c32)c1` (stereo unspecified) was 32.5%; that for `CCOC(=O)c1c(C)nc(NCC2CCN(Cc3ccccc3)CC2)c(C#N)c1-c1ccccc1` was -1.67%; that for `O=C(Cc1c[nH]c2ccccc12)NN=Cc1ccccc1` was 16.94%. The value for `C#CCN(C)Cc1cc2cc(OCCCCC3CCN(Cc4ccccc4)CC3)ccc2n1C.Cl` was 51.07%; that for `COc1ccc(-c2cc(-c3cc4c(OC)ccc(OC)c4nc3Cl)cc(=O)[nH]2)cc1` was -3.34%.

Turning to `Cn1ccnc1C1C2=C(CC(C)(C)CC2=O)Oc2nc3c(c(N)c21)CCC3` (stereo unspecified), the Inhibition is reported as -1.43%. In the case of `O=C(N/N=C/Cc1ccccc1)c1cc2ccccc2[nH]1`, the Inhibition came to 36.99%. In the case of `O=C1SC(SCc2ccccc2)=NC1=Cc1cccc(OCc2ccccc2)c1`, the Inhibition is -7.59%.

Turning to `C=C1CN(C)c2c(C#N)c(-c3ccccc3)c(C#N)c(=O)n21`, the Inhibition is listed as 6.37%. The value for `Br.C#CCNCc1ccccc1` was 2.67%.
